Read counts are not given, so values of variants with three or more changes are uncertain.
B1: OR4K15 (parent)
chain: GUUAACGGUCAUAGGCCAUGGAAACUAGGAGCACCAUUUCGCUGCCAGUGAAGAAAUGAACAAAGAAAAUCUGGGCCAGGCAGGCAUCAAAAGAAAUAGUCUUGCGCUCAACCAGAAAGUCUGUAAUCAUUUUAAGGGUA

Variants of: B1
Test: self-cleavage, relative activity (ratio to wild type); higher = more cleavage; in vitro, sequencing; the parent is a self-cleaving ribozyme

Row | Variant | self-cleavage
1 | U19A C61U G80U | 0.11
2 | U19C A27U C34U U57C A59G A69C U102C | 1.05
3 | U19C A111G U122C | 0.01
4 | A22G A90G U103C | 0.21
5 | A22G A56G A66G | 1.41
6 | U19C U87G U103C | 0.11
7 | A22G A63G A64G A66G U108C | 0.1
8 | A22G A92G A111G | 0.04
9 | A22G A52U A117G | 1.17
10 | U19C C46A A66G U87C A96G | 1
11 | U19A U100C A126G | 1.39
12 | G20C A62G A78G A116G U127C | 0.05
13 | U19C A52G A89C | 1.7
14 | G20C A64G A134G A135G | 1.87
15 | U19C A52G A66G A67G A86G A111U U139A | 0.04
16 | G20C A60G C121A | 1.76
17 | U19C A60U C121U | 2.22
18 | A22C A30G A67U C128A | 1.16
19 | G21U U26C U130A | 1.6
20 | A22G A86G A96G A116G | 0.24
21 | G21A A47G U57C A78U A82G U102C G136A | 0.74

Row | Variant | self-cleavage
22 | U19C A68G A111G | 0.02
23 | A22G A24G A56G A116G U139C | 0.76
24 | G21A A22G A55C C105A | 0.07
25 | G21A A67U U87C | 1.6
26 | U19C U87C U108A A111G | 0
27 | A22G A91U A96U | 0.86
28 | A22G A24G A91G A98C U108C | 0.01
29 | G21A A47G A60G A91G | 0.74
30 | U19C A52U U131C | 1.13
31 | U19C A86U A125G | 1.07
32 | G20U A60G U72A A95U A114U A116G | 0.25
33 | U19C A68U A91G U102C | 1.46
34 | U19C A82U A96G U102A C112A U131C | 0.01
35 | A22G A33G A90G U102C | 1.34
36 | G20A A67G A86G A91C U102C U130C | 1.55
37 | A22G A47G A62G A89U U102C A114G | 0.22
38 | A22G A36U G58U A90G U132A | 1.74
39 | U19C U70C G104A | 0.04
40 | A22G A55G A69G C71A | 0.38
41 | U19C C25U A78U | 0.37
42 | U19C G79U U127C | 0.06

Row | Variant | self-cleavage
43 | U19C A68U U130C | 0.52
44 | U19C U97G U130C | 0.97
45 | U19C A56G A59G A82U A135G | 0.2
46 | U19C U39C A111G A117G | 0
47 | A22G A66G U70C U120C A129G | 0.1
48 | U19C U102C U122C | 0.32
49 | U19C U39C A118G | 1.63
50 | A22G A23G A111G | 0
51 | G20A U49C A116G U124C | 0.27
52 | U19C A82G U97C A98G | 0.54
53 | A22G A47G A69G G74U U127C | 0.09
54 | U19C A51G A78G A96G | 0.35
55 | A22G A36G U43C U131C U139A | 1.2
56 | U19C A51G A82G U122C | 0.12
57 | U19G A67G U97C | 1.97
58 | U19C U49C A60U | 0.76
59 | U19C A23G A51G | 1.18
60 | A22C U72A A82U A117G | 0.31
61 | A22G A68G U87C | 1.09
62 | U19C A52G A135G | 0.76
63 | A22G A89G C101U | 0.3

Row | Variant | self-cleavage
64 | G21C A23G U26C | 1.24
65 | G21A A90G A118C | 0.43
66 | U19C A78G U108C | 0.02
67 | U19C A64U U72C G73A A98G A135G | 0.06
68 | A22G A24G A36U U37A A82G A111G | 0.09
69 | U19C U26C A33U | 0.61
70 | U19G C46U A47G | 0.79
71 | A22G A36G A134G | 1.09
72 | U19C A89G U102C C107U | 0.01
73 | A22G A52U A118G | 0.95
74 | A22G A60G U70A A129U | 0.56
75 | A22G A24G C81A A89G A111G | 0.05
76 | A22G A47G A96C A117G | 0.49
77 | A22G A60G A78G A86G | 0.11
78 | G21A A89G A110U A118G | 0.68
79 | A22G A68G A95G U102C | 1.44
80 | U19C U43C U102C | 1.75
81 | U19C A67G U87C A140G | 1.26
82 | A22G A62G A90G A111G | 0.09
83 | G21A U38A A56U A118C | 0.7
